Source: the supplement of paper PMC7125110
± gives the standard error. Variants at the floor of the assay are shown more often than the library holds them.

B1: glmS ribozyme (parent)
chain: AUAAAAGCGCCAGAACUACAGAAAUGUAGUUGACGAGGAGGAGGUUUAUCGAAUUUUCGGCGGAUGCCUCCAAA

Key:
Details in all cases: with glucosamine-6-phosphate
glucosamine-6-phosphate [1] = variants of: B1; experiment: self-cleavage kobs at 640 uM GlcN6P; higher = faster cleavage; RNA array
How it was run: (§1)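 In situ transcription by E. coli RNA polymerase produced barcoded ribozyme variants on sequenced MiSeq chips, and a hybridised Cy3 probe tracked them at 37 °C. Glucosamine-6-phosphate was flowed in at 40 μM to 10 mM in HEPES/KCl/Mg(OAc)2 buffer. kcat and KM were taken from weighted Michaelis–Menten fits of kobs values from exponential decay fits.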

glucosamine-6-phosphate [2] = variants of: B1; experiment: self-cleavage kobs at 160 uM GlcN6P; higher = faster cleavage; RNA array
How it was run: as §1

glucosamine-6-phosphate [3] = variants of: B1; experiment: self-cleavage kobs at 2500 uM GlcN6P; higher = faster cleavage; RNA array
How it was run: as §1

glucosamine-6-phosphate [4] = variants of: B1; experiment: self-cleavage kobs at 10000 uM GlcN6P; higher = faster cleavage; RNA array
How it was run: as §1

glucosamine-6-phosphate [5] = variants of: B1; experiment: self-cleavage kobs at 40 uM GlcN6P; higher = faster cleavage; RNA array
How it was run: as §1

Variant	self-cleavage kobs at 640 uM GlcN6P (glucosamine-6-phosphate [1])	self-cleavage kobs at 160 uM GlcN6P (glucosamine-6-phosphate [2])	self-cleavage kobs at 2500 uM GlcN6P (glucosamine-6-phosphate [3])	self-cleavage kobs at 10000 uM GlcN6P (glucosamine-6-phosphate [4])	self-cleavage kobs at 40 uM GlcN6P (glucosamine-6-phosphate [5])
A6G U46A U54C	< 1e-05 s⁻¹	< 1e-05 s⁻¹	–	–	–
C8U G32A U45A U56C	< 1e-05 s⁻¹	< 1e-05 s⁻¹	< 1e-05 s⁻¹	< 1e-05 s⁻¹	–
C10G C11A C58G G63U C68A	0.000138 ± 3.5e-05 s⁻¹	–	0.000117 ± 3.3e-05 s⁻¹	–	–
G9A C16U G41A A48U	< 1e-05 s⁻¹	< 1e-05 s⁻¹	< 1e-05 s⁻¹	< 1e-05 s⁻¹	–
A52U C71A	5.96e-05 ± 1.3e-05 s⁻¹	–	–	–	< 1e-05 s⁻¹
G62U C71G	–	–	–	< 1e-05 s⁻¹	< 1e-05 s⁻¹
C8G A53G	< 1e-05 s⁻¹	< 1e-05 s⁻¹	< 1e-05 s⁻¹	–	–
U54A U56G	0.00363 ± 0.00057 s⁻¹	0.000857 ± 0.00017 s⁻¹	0.00548 ± 0.00089 s⁻¹	0.0131 ± 0.0038 s⁻¹	0.000226 ± 4.9e-05 s⁻¹
G7A G32U A39U U56A	< 1e-05 s⁻¹	–	< 1e-05 s⁻¹	–	–
G7C C11U G59C	< 1e-05 s⁻¹	< 1e-05 s⁻¹	< 1e-05 s⁻¹	< 1e-05 s⁻¹	–
C10U G63A	< 1e-05 s⁻¹	–	< 1e-05 s⁻¹	–	–
A48G C71A	–	–	–	–	< 1e-05 s⁻¹
U49A C68A	–	–	–	< 1e-05 s⁻¹	< 1e-05 s⁻¹
C8A U31A C34U G60C	< 1e-05 s⁻¹	–	–	–	–
G9A A36G G63A C67U U69C	< 1e-05 s⁻¹	–	< 1e-05 s⁻¹	–	–
A6U A33C G41A G63C	< 1e-05 s⁻¹	< 1e-05 s⁻¹	< 1e-05 s⁻¹	–	–
C8A C61A	< 1e-05 s⁻¹	< 1e-05 s⁻¹	< 1e-05 s⁻¹	–	–
A48C C50U G63A	–	–	–	–	< 1e-05 s⁻¹
C8U G9U A53U	< 1e-05 s⁻¹	< 1e-05 s⁻¹	–	–	–
C8U G62A C70U	6.07e-05 ± 2.6e-05 s⁻¹	–	–	–	–
C10U U31G A33G G40U C58G C71U	< 1e-05 s⁻¹	–	< 1e-05 s⁻¹	–	–
C10U A53G G63A	< 1e-05 s⁻¹	–	< 1e-05 s⁻¹	–	–
G9C A33C G44C C70A	< 1e-05 s⁻¹	–	< 1e-05 s⁻¹	–	–
A6C A12U G41A	< 1e-05 s⁻¹	< 1e-05 s⁻¹	< 1e-05 s⁻¹	–	–
A64U G66U	–	–	–	–	< 1e-05 s⁻¹
G9U G41C U47G	< 1e-05 s⁻¹	< 1e-05 s⁻¹	< 1e-05 s⁻¹	–	–
C8A C34U G40A A52U	< 1e-05 s⁻¹	< 1e-05 s⁻¹	< 1e-05 s⁻¹	< 1e-05 s⁻¹	–

Variant	self-cleavage kobs at 640 uM GlcN6P (glucosamine-6-phosphate [1])	self-cleavage kobs at 160 uM GlcN6P (glucosamine-6-phosphate [2])	self-cleavage kobs at 2500 uM GlcN6P (glucosamine-6-phosphate [3])	self-cleavage kobs at 10000 uM GlcN6P (glucosamine-6-phosphate [4])	self-cleavage kobs at 40 uM GlcN6P (glucosamine-6-phosphate [5])
U47A C67U	0.003 ± 0.00062 s⁻¹	0.000428 ± 7.1e-05 s⁻¹	0.00497 ± 0.0016 s⁻¹	0.00638 ± 0.00092 s⁻¹	0.00025 ± 3.1e-05 s⁻¹
C8A G41A G51U G63C	< 1e-05 s⁻¹	< 1e-05 s⁻¹	< 1e-05 s⁻¹	–	–
G9U G32C C34G C58U C68G	0.000182 ± 7.9e-05 s⁻¹	–	–	–	–
A53C C70A	–	–	6.85e-05 ± 1.7e-05 s⁻¹	5.03e-05 ± 1.1e-05 s⁻¹	< 1e-05 s⁻¹
A53C C70U	0.000893 ± 0.00013 s⁻¹	0.000315 ± 2.6e-05 s⁻¹	0.00403 ± 0.0007 s⁻¹	0.00392 ± 0.00044 s⁻¹	0.000105 ± 1.2e-05 s⁻¹
C10U G29U G41A A52U G60A	< 1e-05 s⁻¹	–	–	–	–
G9U A42U C50A	< 1e-05 s⁻¹	–	–	–	–
U47A U57G C58U C70U	–	–	–	–	< 1e-05 s⁻¹
C10A A15G G35U G41U	< 1e-05 s⁻¹	–	< 1e-05 s⁻¹	–	–
U54G G63C U65C	< 1e-05 s⁻¹	–	–	–	< 1e-05 s⁻¹
G9A G32A A42G	< 1e-05 s⁻¹	–	< 1e-05 s⁻¹	–	–
A6G A15G G32C	< 1e-05 s⁻¹	–	< 1e-05 s⁻¹	–	–
C8A U30C G40A	< 1e-05 s⁻¹	–	< 1e-05 s⁻¹	< 1e-05 s⁻¹	–
U56A G59U	–	–	–	–	< 1e-05 s⁻¹
C11A A64U	< 1e-05 s⁻¹	< 1e-05 s⁻¹	–	–	–
C10G U57C U69G	< 1e-05 s⁻¹	–	–	–	–
A6G A14G U49A	< 1e-05 s⁻¹	< 1e-05 s⁻¹	< 1e-05 s⁻¹	–	–
G59C C71U	< 1e-05 s⁻¹	< 1e-05 s⁻¹	< 1e-05 s⁻¹	< 1e-05 s⁻¹	< 1e-05 s⁻¹
A6C G35U G40C G59A	< 1e-05 s⁻¹	–	–	–	–
U55G C71G	–	–	0.000704 ± 0.00019 s⁻¹	0.00121 ± 0.00035 s⁻¹	7.4e-05 ± 1.7e-05 s⁻¹
A6G G59C C61G	< 1e-05 s⁻¹	–	< 1e-05 s⁻¹	–	–
A6U A14C U45C C70U	< 1e-05 s⁻¹	< 1e-05 s⁻¹	< 1e-05 s⁻¹	–	–
C10A C11G G35C G44C	< 1e-05 s⁻¹	–	< 1e-05 s⁻¹	–	–
A6U U46A	< 1e-05 s⁻¹	< 1e-05 s⁻¹	–	–	–
C8A A33G G44U C50A G51U	< 1e-05 s⁻¹	–	< 1e-05 s⁻¹	–	–
U49C A52C	–	< 1e-05 s⁻¹	< 1e-05 s⁻¹	–	< 1e-05 s⁻¹
U46A G63A	–	–	–	< 1e-05 s⁻¹	< 1e-05 s⁻¹

Variant	self-cleavage kobs at 640 uM GlcN6P (glucosamine-6-phosphate [1])	self-cleavage kobs at 160 uM GlcN6P (glucosamine-6-phosphate [2])	self-cleavage kobs at 2500 uM GlcN6P (glucosamine-6-phosphate [3])	self-cleavage kobs at 10000 uM GlcN6P (glucosamine-6-phosphate [4])	self-cleavage kobs at 40 uM GlcN6P (glucosamine-6-phosphate [5])
C10U G38A U47C C68G	< 1e-05 s⁻¹	–	–	–	–
A6C G9C C11G U31C G43C C70A	< 1e-05 s⁻¹	–	< 1e-05 s⁻¹	–	–
G9A C16U U30C U55G	< 1e-05 s⁻¹	–	< 1e-05 s⁻¹	–	–
A6G A53G C61A	< 1e-05 s⁻¹	–	< 1e-05 s⁻¹	–	–
G9A A52G C61A	< 1e-05 s⁻¹	< 1e-05 s⁻¹	< 1e-05 s⁻¹	–	–
A6U U30C A53U U56C	< 1e-05 s⁻¹	< 1e-05 s⁻¹	< 1e-05 s⁻¹	–	–
A6G G7U G35U	< 1e-05 s⁻¹	–	–	–	–
G7C G51A G63C	< 1e-05 s⁻¹	–	–	–	–
G9C C10U U30A	< 1e-05 s⁻¹	< 1e-05 s⁻¹	< 1e-05 s⁻¹	–	–
A6C G7U G43U	< 1e-05 s⁻¹	–	< 1e-05 s⁻¹	–	–
C10U G32C A36G A39U	< 1e-05 s⁻¹	< 1e-05 s⁻¹	< 1e-05 s⁻¹	–	–
A6U A15U U46G	< 1e-05 s⁻¹	–	< 1e-05 s⁻¹	–	–
C8G U30G G63C	< 1e-05 s⁻¹	< 1e-05 s⁻¹	< 1e-05 s⁻¹	–	–
A6C A12C A33U C58A	< 1e-05 s⁻¹	–	–	–	–
U47A A53C	0.00103 ± 0.00018 s⁻¹	0.000506 ± 7.8e-05 s⁻¹	0.00465 ± 0.001 s⁻¹	0.00663 ± 0.0016 s⁻¹	0.000173 ± 2.9e-05 s⁻¹
G9C A15G G38C G60A	< 1e-05 s⁻¹	–	< 1e-05 s⁻¹	–	–
C58U G59C	–	–	–	–	< 1e-05 s⁻¹
A52U G60U	–	–	< 1e-05 s⁻¹	< 1e-05 s⁻¹	< 1e-05 s⁻¹
C8A G32A G66A	< 1e-05 s⁻¹	< 1e-05 s⁻¹	< 1e-05 s⁻¹	–	–
G59U U65G C67U	–	–	–	–	< 1e-05 s⁻¹
C50A G62A	< 1e-05 s⁻¹	–	–	–	< 1e-05 s⁻¹
A48G A64G	–	–	–	–	< 1e-05 s⁻¹
G59C C67G C70G	–	–	–	–	< 1e-05 s⁻¹
G63C U65A	–	–	–	< 1e-05 s⁻¹	< 1e-05 s⁻¹
C67G U69C	0.000506 ± 9.2e-05 s⁻¹	0.000179 ± 3.4e-05 s⁻¹	0.00077 ± 0.00014 s⁻¹	0.00127 ± 0.0002 s⁻¹	5.09e-05 ± 1.4e-05 s⁻¹
G7A C11A A14C	< 1e-05 s⁻¹	–	< 1e-05 s⁻¹	< 1e-05 s⁻¹	–
G9U C10A A33U	< 1e-05 s⁻¹	–	< 1e-05 s⁻¹	–	–

Variant	self-cleavage kobs at 640 uM GlcN6P (glucosamine-6-phosphate [1])	self-cleavage kobs at 160 uM GlcN6P (glucosamine-6-phosphate [2])	self-cleavage kobs at 2500 uM GlcN6P (glucosamine-6-phosphate [3])	self-cleavage kobs at 10000 uM GlcN6P (glucosamine-6-phosphate [4])	self-cleavage kobs at 40 uM GlcN6P (glucosamine-6-phosphate [5])
A6U U31G U56C C61G	< 1e-05 s⁻¹	< 1e-05 s⁻¹	< 1e-05 s⁻¹	–	–
G51A G59C	< 1e-05 s⁻¹	< 1e-05 s⁻¹	< 1e-05 s⁻¹	–	< 1e-05 s⁻¹
A52C C71A	–	–	–	–	< 1e-05 s⁻¹
C10G A14U A48C	< 1e-05 s⁻¹	–	< 1e-05 s⁻¹	–	–
A6C C8A G40C U56C G66C C68A	< 1e-05 s⁻¹	< 1e-05 s⁻¹	–	–	–
C8G G41A A53U	< 1e-05 s⁻¹	–	< 1e-05 s⁻¹	–	–
G7A A64C	< 1e-05 s⁻¹	< 1e-05 s⁻¹	–	< 1e-05 s⁻¹	–
C50U A52U	< 1e-05 s⁻¹	< 1e-05 s⁻¹	< 1e-05 s⁻¹	< 1e-05 s⁻¹	< 1e-05 s⁻¹
A6U A12G G59C C67A	< 1e-05 s⁻¹	–	–	–	–
G7A U31G G37A G43C	< 1e-05 s⁻¹	–	–	–	–
U56C G59A G63U C67G	< 1e-05 s⁻¹	–	–	< 1e-05 s⁻¹	< 1e-05 s⁻¹
G63A	< 1e-05 s⁻¹	–	–	< 1e-05 s⁻¹	< 1e-05 s⁻¹
C10U C68U C70U	< 1e-05 s⁻¹	–	–	–	–
C10A C67U C68U	0.000489 ± 0.00014 s⁻¹	–	–	–	–
C10G G40A C50A	< 1e-05 s⁻¹	< 1e-05 s⁻¹	< 1e-05 s⁻¹	< 1e-05 s⁻¹	–
A6C A33G U46C C61G	< 1e-05 s⁻¹	–	< 1e-05 s⁻¹	–	–
A6G G9U A64G	< 1e-05 s⁻¹	–	–	–	–
A6U G7C U45G	< 1e-05 s⁻¹	–	< 1e-05 s⁻¹	–	–
A6C C11A A33U A36U	< 1e-05 s⁻¹	–	< 1e-05 s⁻¹	–	–
A6C A12G C68G C70G	< 1e-05 s⁻¹	< 1e-05 s⁻¹	< 1e-05 s⁻¹	–	–
A53G C61G C70U	–	–	–	–	< 1e-05 s⁻¹
A53U G60U	< 1e-05 s⁻¹	–	–	< 1e-05 s⁻¹	< 1e-05 s⁻¹
C10U A33C U46C G51C G60C	< 1e-05 s⁻¹	–	< 1e-05 s⁻¹	–	–
A6G A14U A53U U56C	< 1e-05 s⁻¹	–	–	–	–
